Here are results for four molecules from patent publication US20240392031A1 (BICARA THERAPEUTICS, published 2024).

Changes are numbered by the printed parent chain. Numbers in names are those of the source. Where two headings read alike, the source gives them in different places.

Assay in all cases: cell-based or functional assay
The target of experiment [1] is T1, human IL-12 receptor (hIL-12R), heterodimer of hIL-12Rβ1 and hIL-12Rβ2 (human, UniProt P42701 24-662; Q99665 24-862).
In experiment [2] the target is T1, human IL-12 receptor (hIL-12R), …. The source holds these as a separate data set.
For experiment [3] the target is unchanged. The source holds these as a separate data set.
Experiment [4] shares this target. This is another data set of the same source.
Experiment [5] shares this target. The source holds these as a separate data set.

B1: BCA378, anti-hCAIX hIL-12 fusion protein (hIL-12p40 K217A, K219A) (other)
heavy 1: EVRLVESGGGLVKPGGSLRLSCAASGFTFSNYYMSWIRQAPEKRLELVSAINSDGGITYYLDTVKGRFTISRDNAKNSLYLQMNSLRAEDTALFYCARHRSGYFSMDYWGQGTSVTVSS[human IgG1 constant region with changes left out here]GGGGSGGGGSGGGGSIWELKKDVYVVELDWYPDAPGEMVVLTCDTPEEDGITWTLDQSSEVLGSGKTLTIQVKEFGDAGQYTCHKGGEVLSHSLLLLHKKEDGIWSTDILKDQKEPKNKTFLRCEAKNYSGRFTCWWLTTISTDLTFSVKSSRGSSDPQGVTCGAATLSAERVRGDNKEYEYSVECQEDSACPAAEESLPIEVMVDAVHALAYENYTSSFFIRDIIKPDPPKNLQLKPLKNSRQVEVSWEYPDTWSTPHSYFSLTFCVQVQGKSKREKKDRVFTDKTSATVICRKNASISVRAQDRYYSSSWSEWASVPCS
heavy 2: EVRLVESGGGLVKPGGSLRLSCAASGFTFSNYYMSWIRQAPEKRLELVSAINSDGGITYYLDTVKGRFTISRDNAKNSLYLQMNSLRAEDTALFYCARHRSGYFSMDYWGQGTSVTVSSASTKGPSVFPLAPSSKSTSGGTAALGCLVKDYFPEPVTVSWNSGALTSGVHTFPAVLQSSGLYSLSSVVTVPSSSLGTQTYICNVNHKPSNTKVDKKV[human IgG1 Fc with changes left out here]GGGGSGGGGSGGGGSRNLPVATPDPGMFPCLHHSQNLLRAVSNMLQKARQTLEFYPCTSEEIDHEDITKDKTSTVEACLPLELTKNESCLNSRETSFITNGSCLASRKTSFMMALCLSSIYEDLKMYQVEFKTMNAKLLMDPKRQIFLDQNMLAVIDELMQALNFNSETVPQKSSLEEPDFYKTKIKLCILLHAFRIRAVTIDRVMSYLNAS
light: EIVMTQSPATLSVSPGERATLSCKASQNVVSAVAWYQQKPGQSPRLLIYSASNRYTGIPARFSGSGSGTEFTLTISSLQSEDFAAYYCQQYRNYPWTFGGGTKVEIKRTVAAPSVFIFPPSDEQLKSGTASVVCLLNNFYPREAKVQWKVDNALQSGNSQESVTEQDSKDSTYSLSSTLTLSKADYEKHKVYACEVTHQGLSSPVTKSFNRGEC
B1: the “Fold Attenuation (Over Fc-IL-12 Control); HEK-Blue IL-12 reporter assay” value (from here on “Fold Attenuation (Over Fc-IL-12 Control)”) in experiment [1] is 5 fold. The “HEK-IL12 reporter assay Attenuation (summary table)” value (shortened to “HEK-IL12 reporter assay Attenuation”) in experiment [2] worked out at 5 fold.

B2: BCA308.16, anti-hCAIX hIL-12 fusion protein (hIL-12p35 variant B: E60K/F61H/P63S/K150H/F188P) (other)
heavy 1: EVRLVESGGGLVKPGGSLRLSCAASGFTFSNYYMSWIRQAPEKRLELVSAINSDGGITYYLDTVKGRFTISRDNAKNSLYLQMNSLRAEDTALFYCARHRSGYFSMDYWGQGTSVTVSS[human IgG1 constant region with changes left out here]GGGGSGGGGSGGGGSIWELKKDVYVVELDWYPDAPGEMVVLTCDTPEEDGITWTLDQSSEVLGSGKTLTIQVKEFGDAGQYTCHKGGEVLSHSLLLLHKKEDGIWSTDILKDQKEPKNKTFLRCEAKNYSGRFTCWWLTTISTDLTFSVKSSRGSSDPQGVTCGAATLSAERVRGDNKEYEYSVECQEDSACPAAEESLPIEVMVDAVHKLKYENYTSSFFIRDIIKPDPPKNLQLKPLKNSRQVEVSWEYPDTWSTPHSYFSLTFCVQVQGKSKREKKDRVFTDKTSATVICRKNASISVRAQDRYYSSSWSEWASVPCS
heavy 2: EVRLVESGGGLVKPGGSLRLSCAASGFTFSNYYMSWIRQAPEKRLELVSAINSDGGITYYLDTVKGRFTISRDNAKNSLYLQMNSLRAEDTALFYCARHRSGYFSMDYWGQGTSVTVSSASTKGPSVFPLAPSSKSTSGGTAALGCLVKDYFPEPVTVSWNSGALTSGVHTFPAVLQSSGLYSLSSVVTVPSSSLGTQTYICNVNHKPSNTKVDKKV[human IgG1 Fc with changes left out here]GGGGSGGGGSGGGGSRNLPVATPDPGMFPCLHHSQNLLRAVSNMLQKARQTLKHYSCTSEEIDHEDITKDKTSTVEACLPLELTKNESCLNSRETSFITNGSCLASRKTSFMMALCLSSIYEDLKMYQVEFKTMNAKLLMDPHRQIFLDQNMLAVIDELMQALNFNSETVPQKSSLEEPDPYKTKIKLCILLHAFRIRAVTIDRVMSYLNAS
light: B1 light with R92S
In the case of B2, the “Fold Attenuation (Over Fc-IL-12 Control)” value in experiment [3] is 1.4 fold.

B3: BCA375, anti-hCAIX hIL-12 fusion protein (hIL-12p40 W37A, K219A) (other)
heavy 1: EVRLVESGGGLVKPGGSLRLSCAASGFTFSNYYMSWIRQAPEKRLELVSAINSDGGITYYLDTVKGRFTISRDNAKNSLYLQMNSLRAEDTALFYCARHRSGYFSMDYWGQGTSVTVSS[human IgG1 constant region with changes left out here]GGGGSGGGGSGGGGSIWELKKDVYVVELDAYPDAPGEMVVLTCDTPEEDGITWTLDQSSEVLGSGKTLTIQVKEFGDAGQYTCHKGGEVLSHSLLLLHKKEDGIWSTDILKDQKEPKNKTFLRCEAKNYSGRFTCWWLTTISTDLTFSVKSSRGSSDPQGVTCGAATLSAERVRGDNKEYEYSVECQEDSACPAAEESLPIEVMVDAVHKLAYENYTSSFFIRDIIKPDPPKNLQLKPLKNSRQVEVSWEYPDTWSTPHSYFSLTFCVQVQGKSKREKKDRVFTDKTSATVICRKNASISVRAQDRYYSSSWSEWASVPCS
heavy 2: EVRLVESGGGLVKPGGSLRLSCAASGFTFSNYYMSWIRQAPEKRLELVSAINSDGGITYYLDTVKGRFTISRDNAKNSLYLQMNSLRAEDTALFYCARHRSGYFSMDYWGQGTSVTVSSASTKGPSVFPLAPSSKSTSGGTAALGCLVKDYFPEPVTVSWNSGALTSGVHTFPAVLQSSGLYSLSSVVTVPSSSLGTQTYICNVNHKPSNTKVDKKV[human IgG1 Fc with changes left out here]GGGGSGGGGSGGGGSRNLPVATPDPGMFPCLHHSQNLLRAVSNMLQKARQTLEFYPCTSEEIDHEDITKDKTSTVEACLPLELTKNESCLNSRETSFITNGSCLASRKTSFMMALCLSSIYEDLKMYQVEFKTMNAKLLMDPKRQIFLDQNMLAVIDELMQALNFNSETVPQKSSLEEPDFYKTKIKLCILLHAFRIRAVTIDRVMSYLNAS
light: B1 light
As to B3, the “Fold Attenuation (Over Fc-IL-12 Control)” value in experiment [1] is 319 fold. Moreover, the “HEK-IL12 reporter assay Attenuation” value in experiment [2] was 319 fold.

B4: BCA356, anti-hCAIX hIL-12 fusion protein (hIL-12p40 W37A/F82A/K219A, Variant O) (other)
heavy 1: EVRLVESGGGLVKPGGSLRLSCAASGFTFSNYYMSWIRQAPEKRLELVSAINSDGGITYYLDTVKGRFTISRDNAKNSLYLQMNSLRAEDTALFYCARHRSGYFSMDYWGQGTSVTVSS[human IgG1 constant region with changes left out here]GGGGSGGGGSGGGGSIWELKKDVYVVELDAYPDAPGEMVVLTCDTPEEDGITWTLDQSSEVLGSGKTLTIQVKEAGDAGQYTCHKGGEVLSHSLLLLHKKEDGIWSTDILKDQKEPKNKTFLRCEAKNYSGRFTCWWLTTISTDLTFSVKSSRGSSDPQGVTCGAATLSAERVRGDNKEYEYSVECQEDSACPAAEESLPIEVMVDAVHKLAYENYTSSFFIRDIIKPDPPKNLQLKPLKNSRQVEVSWEYPDTWSTPHSYFSLTFCVQVQGKSKREKKDRVFTDKTSATVICRKNASISVRAQDRYYSSSWSEWASVPCS
heavy 2: EVRLVESGGGLVKPGGSLRLSCAASGFTFSNYYMSWIRQAPEKRLELVSAINSDGGITYYLDTVKGRFTISRDNAKNSLYLQMNSLRAEDTALFYCARHRSGYFSMDYWGQGTSVTVSSASTKGPSVFPLAPSSKSTSGGTAALGCLVKDYFPEPVTVSWNSGALTSGVHTFPAVLQSSGLYSLSSVVTVPSSSLGTQTYICNVNHKPSNTKVDKKV[human IgG1 Fc with changes left out here]GGGGSGGGGSGGGGSRNLPVATPDPGMFPCLHHSQNLLRAVSNMLQKARQTLEFYPCTSEEIDHEDITKDKTSTVEACLPLELTKNESCLNSRETSFITNGSCLASRKTSFMMALCLSSIYEDLKMYQVEFKTMNAKLLMDPKRQIFLDQNMLAVIDELMQALNFNSETVPQKSSLEEPDFYKTKIKLCILLHAFRIRAVTIDRVMSYLNAS
light: B1 light
Regarding B4, in experiment [4], the “IL-12 activity in HEK-IL-12 reporter assay (SEAP), fold attenuation compared to BCA351 (wild type IL-12 fusion); average of three independent experiments” value was about 7000 fold. Besides, in experiment [1], the “Fold Attenuation (Over Fc-IL-12 Control)” value was 7300 fold. The “HEK-IL12 reporter assay Attenuation” value in experiment [2] is 7300 fold. In experiment [5], the “HEK IL-12 Reporter Assay (Ratio of EC50)” value was 7300 ratio and the “PSTAT (CD8) flow cytometry - percent reduction at 16.9 nM” value was 91.1%.
